{"source": "PubChem BioAssay AID463173", "about": "(ICCB-Longwood Screening Facility, Harvard Medical School, 2010)", "note": "The campaign covered roughly 52,000 compounds. About 4,300 (8.3%) were called active. Rule as the data show it: active = survival mostly below about 52% (no sharp cut-off); inactive = mostly above about 56%. The list shows a part of the results.", "data": [{"system": "DeltatarO mutant", "assay": "S. aureus survival, RN4220 and DeltatarO strains – OD600, teichoic acid synthesis inhibitors, primary screen (AID 463173)", "settings": "S. aureus RN4220 wild type/DeltatarO growth, OD600, 18 h, active compounds read low, screened at 18.75 µg/mL (by protocol)", "values": [{"compound": "COc1ccc(-c2cc(C(=O)Nc3cccnc3)no2)cc1OC", "survival": "inactive: 79%"}, {"compound": "CC(C)c1nc2sc3c(c2c(=O)n1N)CC(C)(C)OC3", "survival": "inactive: 58%"}, {"compound": "COc1cc(OC)c(NC(=O)c2cc3c(=O)oc4ccc(C)cc4c3s2)cc1Cl", "survival": "inactive: 66%"}, {"compound": "COc1cc(S(=O)(=O)N(Cc2cccnc2)Cc2ccco2)ccc1-n1cnnn1", "survival": "inactive: 99%"}, {"compound": "CCN(CC)CCNc1nc2c(c(=O)[nH]c(=O)n2C)n1Cc1ccccc1Cl", "survival": "inactive: 93%"}, {"compound": "Cc1ccc(-n2ncc3c(NCCO)ncnc32)cc1Cl", "survival": "inactive: 73%"}, {"compound": "Cn1c(CCCCN)nc2ccccc21", "survival": "inactive: 95%"}, {"compound": "CC(C)c1ccc(NC(=O)C2CCN(S(=O)(=O)c3cccc4nonc34)CC2)cc1", "survival": "inactive: 108%"}, {"compound": "Cc1ccccc1Nc1c(-c2ccc(Cl)cc2)nc2c(C)cccn12", "survival": "inactive: 69%"}, {"compound": "Cc1ccc(N2C(=O)CSC23C(=O)N(Cc2ccccc2F)c2ccccc23)cc1F", "note": "(centres undefined)", "survival": "inactive: 84%"}, {"compound": "O=C(CN1C(=O)c2ccccc2C1=O)Nc1ccccc1C(=O)N1CCCC1", "survival": "inactive: 78%"}, {"compound": "COc1ccc(NC(=O)Cn2c(=O)n(CCc3ccccc3)c(=O)c3c4c(sc32)CCCC4)cc1", "survival": "inactive: 93%"}, {"compound": "Cc1ccccc1NC(=O)CSc1cn(CC(=O)N2CCCCCC2)c2ccccc12", "survival": "inactive: 64%"}, {"compound": "COc1cc2c(=O)c(C(=O)c3ccc(C)c(C)c3)cn(Cc3ccc(F)cc3)c2cc1OC", "survival": "inactive: 75%"}, {"compound": "CCOc1ccccc1NC(=O)c1ccc2c(c1)CCN2S(=O)(=O)c1ccc(C)cc1", "survival": "inactive: 62%"}, {"compound": "CCOC(=O)c1c(C)[nH]c(C)c1S(=O)(=O)NCC(=O)Nc1ccc(C)c(N(C)C)c1", "survival": "inactive: 54%"}, {"compound": "CCOc1cc(CNC(=O)Cn2c(=O)c3cccn3c3ccc(F)cc32)cc(OCC)c1OCC", "survival": "inactive: 50%"}, {"compound": "CC(C)=NNC(=O)c1nnn(-c2nonc2N)c1CN1CCOCC1", "survival": "inactive: 96%"}, {"compound": "COc1c(C)cc(Br)cc1C(=O)Nc1ccc(-c2nc3ncccc3o2)cc1", "survival": "inactive: 50%"}, {"compound": "COc1cc(NC(=O)c2ccc3oc(=O)c(S(=O)(=O)c4ccccc4)cc3c2)cc(OC)c1", "survival": "inactive: 83%"}, {"compound": "COc1ccc(S(=O)(=O)Nc2cccc(-c3ccc(N4CCC(C)CC4)nn3)c2)c(OC)c1", "survival": "inactive: 79%"}, {"compound": "CCOc1ccc(NC(=O)Cn2c(=O)n(-c3cccc(Cl)c3)c(=O)c3c2c2cc(C)ccc2n3C)cc1", "survival": "inactive: 147%"}, {"compound": "CCOc1cccc(C2c3[nH]c4ccccc4c3CCN2C(=O)CSc2ccccc2)c1", "note": "(centres undefined)", "survival": "inactive: 71%"}, {"compound": "Cc1cc(C(F)(F)F)c2c(N)c(C#N)sc2n1", "survival": "inactive: 84%"}, {"compound": "Cc1cccc(C(=O)N2CCc3cc(CNC(=O)COc4ccc(Cl)cc4)ccc32)c1", "survival": "inactive: 54%"}, {"compound": "COc1cccc(Cn2c(=O)cc(C)c3c(C)nn(C)c32)c1", "survival": "inactive: 89%"}, {"compound": "COc1ccc(C(=O)NCC(c2cccnc2)N2CCN(c3ccccc3)CC2)cc1", "note": "(centres undefined)", "survival": "inactive: 63%"}, {"compound": "CCCc1nn2c(=O)cc(COC(=O)c3cccc(NC(=O)c4cccs4)c3)nc2s1", "survival": "inactive: 71%"}, {"compound": "CCc1cccc(C)c1NC(=O)CCS(=O)(=O)c1cc(Br)cc2c1N(C(=O)C1CC1)CC2", "survival": "inactive: 83%"}, {"compound": "Cc1c(Cl)cccc1NC(=O)Cn1c(=O)n(Cc2ccco2)c(=O)c2sc3ccccc3c21", "survival": "inactive: 135%"}, {"compound": "Cc1c(C(=O)NCc2ccc(Cl)cc2)sc2nc3n(c(=O)c12)CCCCC3", "survival": "active: 51%"}, {"compound": "O=C(CCCCn1c(=O)c2ccccc2n(CC(=O)Nc2cccc(C(F)(F)F)c2)c1=O)NCc1ccc2c(c1)OCO2", "survival": "inactive: 84%"}, {"compound": "O=C(Nc1ccc(C(=O)OCc2cc(=O)n3c4c(sc3n2)CCCC4)cc1)c1ccc(F)cc1", "survival": "inactive: 101%"}, {"compound": "CCc1nn2c(-c3ccccc3OC)ccnc2c1-c1ccccc1", "survival": "active: 0%"}, {"compound": "COc1cc(NS(=O)(=O)c2ccc(NC(=O)c3cccc(F)c3)cc2)nc(OC)n1", "survival": "inactive: 97%"}, {"compound": "CCC1CN(S(=O)(=O)c2cc(-c3cc(C)no3)ccc2C)c2cc(Cl)ccc2O1", "note": "(centres undefined)", "survival": "inactive: 75%"}, {"compound": "COc1cc(NC(=O)CC2C(=O)OCCN2Cc2ccccc2)cc(OC)c1", "note": "(centres undefined)", "survival": "inactive: 168%"}, {"compound": "CCN1CCN(CCCNC(=O)CS(=O)(=O)Cc2nc(-c3cccc(OC)c3)oc2C)CC1", "survival": "inactive: 80%"}, {"compound": "Cc1oc2ncnc(N3CCCCC3)c2c1C(=O)NCC1CCN(Cc2cccc(F)c2)CC1", "survival": "active: -5%"}, {"compound": "Cc1ccccc1NC(=O)c1ccc(F)c(S(=O)(=O)N2CCN(c3ccccc3F)CC2)c1", "survival": "inactive: 71%"}, {"compound": "COc1ccc(-c2nc(CSc3nncn4c3cc3oc(C)cc34)c(C)o2)cc1", "survival": "inactive: 56%"}, {"compound": "O=C(NCCc1ccccc1)C(=O)NCC(c1ccco1)S(=O)(=O)c1cccs1", "note": "(centres undefined)", "survival": "inactive: 94%"}, {"compound": "Cc1ccc(-n2nnc(-c3nc(-c4cccs4)no3)c2N)cc1C", "survival": "inactive: 74%"}, {"compound": "COc1ccc(OC)c(CCNC(=O)c2ccc3c(c2)c(C)c(C)n3Cc2ccccc2)c1", "survival": "inactive: 79%"}, {"compound": "CCOC(=O)c1cnc2ccccc2c1NCCCN(C)C", "survival": "inactive: 94%"}, {"compound": "COc1ccc(N=C2SC(C(N)=O)CC(=O)N2Cc2ccccc2)cc1", "note": "(centres undefined)", "survival": "inactive: 78%"}, {"compound": "COc1ccc(NC(=O)CC2Nc3ccccc3NC2=O)cc1", "note": "(centres undefined)", "survival": "active: 61%"}, {"compound": "COc1ccc(Nc2nn(-c3ccc(OC(F)(F)F)cc3)nc2C(C)=O)cc1", "survival": "inactive: 86%"}, {"compound": "Cc1cc(C(=O)NCc2ccccc2)c2c(C)nn(-c3cccc(F)c3)c2n1", "survival": "inactive: 55%"}, {"compound": "COc1cc(Nc2nc(SCC(=O)c3ccc(Cl)c(Cl)c3)nc3ccccc23)cc(OC)c1", "survival": "inactive: 83%"}, {"compound": "O=C(CCC1N=C2c3ccccc3N=C(SCC(=O)Nc3ccc(F)cc3)N2C1=O)NCc1ccco1", "note": "(centres undefined)", "survival": "inactive: 112%"}, {"compound": "O=C(Nc1ccc2nc3n(c(=O)c2c1)CCCCC3)c1cccc(C(F)(F)F)c1", "survival": "inactive: 114%"}, {"compound": "Cc1ccc(N(Cc2cccs2)C(=O)c2ccco2)cc1", "survival": "inactive: 75%"}, {"compound": "Nc1nn(-c2ccccc2)nc1C(=O)OCc1c(F)cccc1Cl", "survival": "active: 28%"}, {"compound": "CC(C)N(C(=O)Cn1cc(S(=O)(=O)Cc2ccc(Cl)cc2)c2ccccc21)C(C)C", "survival": "inactive: 69%"}, {"compound": "COc1ccc(-n2c(SCC(=O)NCc3ccccc3)nc3c([nH]c4ccccc43)c2=O)cc1", "survival": "inactive: 93%"}, {"compound": "CCN(CC)c1ccc(C2Nc3ccccc3-c3cc(C)nn32)cc1", "note": "(centres undefined)", "survival": "active: 7%"}, {"compound": "CCCCN(CCCNC(=O)c1cc(Nc2ccccc2OC)nc2ccccc12)c1ccccc1", "survival": "inactive: 78%"}, {"compound": "O=S(=O)(c1ccccc1)c1ccc(N2CCCCC2)cc1", "survival": "inactive: 95%"}, {"compound": "COc1ccc(C2(CNC(=O)C(=O)Nc3ccccc3C)CCCC2)cc1OC", "survival": "inactive: 73%"}, {"compound": "COc1cc(OC)c(NC(=O)N2CCC(CN3CCCC3)CC2)cc1Cl", "survival": "inactive: 84%"}, {"compound": "CCOC(=O)c1ccc(Nc2nn3c(=O)c4ccccc4nc3s2)cc1", "survival": "inactive: 99%"}, {"compound": "CCCCN(C)C(=O)Cn1cnc2sc(C)c(S(=O)(=O)N3CCC(C)CC3)c2c1=O", "survival": "inactive: 68%"}, {"compound": "COc1ccccc1Nc1ncnc2scc(-c3ccc(F)cc3)c12", "survival": "inactive: 115%"}, {"compound": "Cc1nn(-c2ccccc2)c2c1N(CC(=O)N1CCN(c3ccccc3F)CC1)C(=O)CS2", "survival": "inactive: 115%"}, {"compound": "Cc1ccc(CNC(=O)c2ccc(CS(=O)(=O)Cc3ccc(C)cc3)o2)cc1", "survival": "inactive: 49%"}, {"compound": "Cc1ccc(CNc2ccc3cc(S(=O)(=O)N4CCCCC4)ccc3n2)cc1", "survival": "inactive: 67%"}, {"compound": "CCCCN(C)C(=O)c1ccc2c(c1)N(Cc1cccc(F)c1)C(=O)c1ccccc1S2", "survival": "inactive: 92%"}, {"compound": "CCOc1cc(C#N)c(-n2nnc3c(sc4nc(C)cc(C)c43)c2=O)cc1OCC", "survival": "inactive: 72%"}, {"compound": "CCOC(=O)c1scc(-c2ccc(C)cc2)c1S(=O)(=O)Nc1cc(OC)ccc1OC", "survival": "inactive: 92%"}, {"compound": "Cc1cc(C)c(/C=C/c2onc(C)c2S(=O)(=O)N2CCC(C(=O)NCCc3ccccc3)CC2)c(C)c1", "survival": "inactive: 94%"}, {"compound": "Cc1ccc(OCCCn2c(-c3ccc(Cl)cc3)nc3ccccc3c2=O)c(C)c1", "survival": "inactive: 72%"}, {"compound": "Cc1ccc(NC(=O)C2CCCN(S(=O)(=O)c3c(C)noc3C)C2)cc1", "note": "(centres undefined)", "survival": "inactive: 120%"}, {"compound": "Clc1ccc(-n2c(Cc3ccccc3)nnc2SCc2nc(-c3cccs3)no2)cc1", "survival": "inactive: 66%"}, {"compound": "COc1ccc(NC(=O)c2oc3ccccc3c2NC(=O)C2CCCCC2)c(OC)c1", "survival": "inactive: 74%"}, {"compound": "Nc1c(C(=O)Nc2ccccc2)sc2nc3c(cc12)CN(Cc1ccccc1)CC3", "survival": "inactive: 63%"}, {"compound": "Cc1ccc(C(=O)c2cn(Cc3ccccc3)c3nc(C)ccc3c2=O)cc1", "survival": "inactive: 76%"}, {"compound": "Cc1nc(N2CCCC2)c2c(C(=O)N3CCN(c4cc(Cl)ccc4C)CC3)c(C)oc2n1", "survival": "inactive: 102%"}, {"compound": "CCn1c(=O)c(=O)n(CC)c2cc(S(=O)(=O)Nc3ccc(C)cc3)ccc21", "survival": "inactive: 114%"}, {"compound": "O=C(Nc1ccccc1)c1snc2c(=O)[nH]cnc12", "survival": "inactive: 113%"}, {"compound": "CCCC(=O)N1CCN(c2nc3ccc(F)cc3s2)CC1", "survival": "inactive: 101%"}, {"compound": "O=C(Cn1c(=O)c2cccn2c2ccccc21)NCc1ccccc1F", "survival": "inactive: 84%"}, {"compound": "COC(=O)c1ccc(NC(=O)Cn2cnc3c2c(=O)n(C)c(=O)n3C)cc1", "survival": "inactive: 80%"}, {"compound": "Cc1cccc(N(CC(=O)NCCSCc2ccccc2)S(=O)(=O)c2ccccc2)c1C", "survival": "inactive: 57%"}, {"compound": "CCc1cccc(C)c1NC(=O)C1CCCN1S(=O)(=O)c1cccc2nsnc12", "note": "(centres undefined)", "survival": "inactive: 68%"}, {"compound": "CCc1ccc(N=C2NC(=O)CC(C(=O)Nc3ccc(OC)cc3)S2)cc1", "note": "(centres undefined)", "survival": "inactive: 87%"}, {"compound": "CN(C)S(=O)(=O)c1ccc(NC(=O)CNCc2ccco2)cc1", "survival": "inactive: 97%"}, {"compound": "O=C(Nc1ccc2oc(=O)ccc2c1)c1cccc(F)c1", "survival": "inactive: 76%"}, {"compound": "COc1cc2c(cc1OC)C(COc1ccccc1OC)N(C(=O)CC(C)C)CC2", "note": "(centres undefined)", "survival": "inactive: 70%"}]}]}
